B1: GBRAP_128_3191 (protein)
chain: SVEEVREWTRAAMERIKNSDEEEARAIAEELMERLKELSVEEVEAAVEVILEELPKLSKEHLEIIADVFRRKRPEFTPEKAELVAEVEVEALNLLEELEE
B2: GBRAP_166_4941 (protein)
chain: SLEEIMKKLEAAIKEFKEKIKELNEEERLERIIEIGELIKEAIEAGASDEKLVEAITRVLEAAKEAGFDPAVAAGIIANVADVSEELEDKIWEKVDELKK
B3: GBRAP_160_4828 (protein)
chain: SEALERLKKLIDEEAKRAIELIKGQTAEERAAIVAVEFGRVILELSEEPEVSDELEDKVAELADAAVATIRANPDLTYEEITALINDTAEKIKELIEKEL
B4: GBRAP_184_5360 (protein)
chain: DVEVVSIDAKTKEEAERKLKEARERIKKSGKPTTLYLFLENADLETFETAAKLLNEMKEEGLIERAIIDVLDERSEEEVDKMVKIADKYGVQLVVALKEE
B5: GBRAP_166_4905 (protein)
chain: SREEEIKRLIEEIEELIERYKEADEEEQLELLIEIGEKLRELKKLGMPLEEILELVRRALEAAKEAGRSVRVAAGIIAEVADFDEEEIEKIDEIAREVEA
B6: GBRAP_57_6446 (protein)
chain: SARLEAIREAAARLIALLEAGAPEEEIREAARELMDLLSEDTVLLVAAILDPEAAEGLDLEELRELVVERLIELRRTEGPAAAIRVVEAALAQEELDAEE
B7: GBRAP_160_4510 (protein)
chain: SEKLEKIKKDIEEARKEIIEEIDEGTVEEAQVVAAVELGEVIMDLIEDESFSDEAVDEAAKIRDELIEELKKNKNASKEELKKIVEEKTEELIKKLEKLS
B8: GBRAP_137_3617 (protein)
chain: KTIHITFSEEDGTAIATIEASPEVDHEKLLELVEEVAKETGTQVVEAYDEDSPVRIIDLVGTREQIIAATKLLIKRLKEELGAEVVLSSDGAEDLVEAVR

Experimental findings from the supplement of paper PMC12632987 are described below.

In all, about 4,500 sequences were measured (“median log2 fold change of GCK-ALFA target abundance (FLAG IP / Myc IP barcode read proportion)”: median about 0.078, lowest 2% from about -0.6 on). This is one part of the list.

This assay deals with GABARAP, O95166. Description: median log2 fold change of GCK-ALFA target abundance (FLAG IP / Myc IP barcode read proportion) (log2 ratio); each designed protein is fused to an ALFA-tag nanobody in HEK293 cells to bring the named protein to FLAG-tagged glucokinase (GCK); Myc marks an untargeted standard; higher = target protein stabilised (more abundant). To be noted: target protein: 3xFLAG-MCP-GCK-ALFA reporter; HEK293 landing pad (RPLP). The method, boiled down: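 HEK293 landing-pad cells received a recombined binder library fused to the ALFA nanobody and were induced with 2 μg mL^−1 doxycycline, then transfected with a plasmid encoding a FLAG-tagged target and a Myc-tagged standard. Lysates were collected after 48 h for anti-FLAG and anti-Myc immunoprecipitation, and the circular RNA barcodes were reverse transcribed, amplified and sequenced. Target abundance for each binder is the median log2 ratio of FLAG to Myc barcode read proportions. Barcodes had to reach a proportion of at least 10^−7 in both replicates, each binder needed at least 3 barcodes per replicate, a pseudocount of 10^−6 was applied, and the two replicates were pooled.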
GABARAP, O95166, sequence (O95166 whole entry, the tested form may be a part): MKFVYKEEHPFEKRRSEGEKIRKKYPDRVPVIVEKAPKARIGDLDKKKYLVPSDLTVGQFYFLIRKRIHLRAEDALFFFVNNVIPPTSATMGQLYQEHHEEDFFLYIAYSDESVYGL
B1: the “median log2 fold change” value came to 0.181.

On to B2, for which the “median log2 fold change” value was -0.134.

With B3, the “median log2 fold change” value turned out to be 0.532.

For the molecule B4, the “median log2 fold change” value amounted to 0.16.

B5: the “median log2 fold change” value was determined as 0.127.

Turning to B6, the “median log2 fold change” value is 0.0741.

With B7, the “median log2 fold change” value worked out at 0.0879.

With B8, the “median log2 fold change” value turned out to be 0.157.
